The values that follow come from the RNAGym collection of RNA variant scans (doi:10.1093/nar/gkz1192).

The chains are these.
B1: CPEB3 Ribozyme (parent)
chain: UAACAGGGGGCCACAGCAGAAGCGUUCACGUCGCAGCCCCUGUCAGAUUCUGGUGAAUCUGCGAAUUCUGCUGUAUAUCUC

Read counts are not given, so values of variants with three or more changes are uncertain.

The variants in this series derive from B1. Nature of the series: self-cleavage, relative activity (ratio to wild type); higher = more cleavage; in vitro, sequencing. The procedure, abridged: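 Relative activity compares each variant's cleaved/total read fraction with that of the unmutated ribozyme. To get these fractions, barcoded CPEB3 ribozyme libraries from rounds of error-prone PCR were transcribed with T7 RNA polymerase for 5 hours at 37°C and then given 15 min of DNase I treatment before EDTA was added. The RNAs were reverse transcribed with template switching and sequenced on Illumina, and DNA sequencing linked barcodes to variants. A minimum of 5 reads applied, and three batches were averaged.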
With UAACAGGGGGCCACAGCAGAAGCGUUCACGUCGCAGCCCCUGUCAGAUUCUGAUGAAUCUGCGAAUUCAGCCGUAUAUCUC, the self-cleavage stood at 0.64.

UAACAGGGGGCCACAGCAGAAGCGUUCACGUCGCAGCCCCUGUCAGAUUCAGGUGAAUCUGCGAAUACUGCAGUAUAUCUC: the self-cleavage came to 0.56.

Turning to UAACAGGGGGCCACAGCAGAAGCGUUCACGUCGCAGCCCCUGUCAGAUUCAGGCGAAUCUGCGAAUUAUGCUGUAUAUCUC, the self-cleavage was 0.2.

Regarding UAACAGGGGGCCACAGCAGAAGCGUUCACGUCGCAGCCCCUGUCAGAUUCUGAUGUAUCAGCGGUUUCUGCUGUAUAUCUC, the self-cleavage worked out at 0.19.

Regarding UAACAGGGGGCCACAGCAGAAGCGUUCACGUCGCAGCCCCUGUCAGAUUCAGGUGUAUCUGCGAAUUCUGCUGUAUAUCCC, the self-cleavage turned out to be 0.41.

UAACAGGGGGCCACAGCAGAAGCGUUCACGUCGCAGCCCCUGUCAGAUUCCGGUGAAUCUGCGAAUCCUGCAGUAUAUCUC: the self-cleavage amounted to 0.48.

In the case of UAACAGGGGGCCACAGCAGAAGCGUUCACGUCGCAGCCCCUGUCAGAUUCCGGUGAACCUGCGUAUUCUGCUGUAUAUCUC, the self-cleavage was found to be 0.29.

For UAACAGGGGGCCACAGCAGAAGCGUUCACGUCGCAGCCCCUGUCAGAUUCCGGUGAAUCUGCGAAUUCAGCUGUAAAUCUC, the self-cleavage was 0.61.

UAACAGGGGGCCACAGCAGAAGCGUUCACGUCGCAGCCCCUGUCAGAUUCUAGUGAAUCUGCGAAUCCUGCUGUAAAUCUC: the self-cleavage is 0.48.

UAACAGGGGGCCACAGCAGAAGCGUUCACGUCGCAGCCCCUGUCAGAUUCCGGUGAAUCUGCGAAUUCUGCUGUAUACGCC: the self-cleavage was 1.22.

Regarding UAACAGGGGGCCACAGCAGAAGCGUUCACGUCGCAGCCCCUGUCAGAUUCUGCUGAAUCUGCGGAUUCUGCUGUAUAUCAC, the self-cleavage was determined as 1.14.

For UAACAGGGGGCCACAGCAGAAGCGUUCACGUCGCAGCCCCUGUCAGAUUCUGAUGAGUCUGCGAAUUCUGCAGUAUAUCUC, the self-cleavage came to 0.82.

For UAACAGGGGGCCACAGCAGAAGCGUUCACGUCGCAGCCCCUGUCAGAUUCCGGUGGAUCUGCGAAUCCUGCUGUAUAUCUC, the self-cleavage was 0.24.

Regarding UAACAGGGGGCCACAGCAGAAGCGUUCACGUCGCAGCCCCUGUCAGAUUCUGUUGAACCUGCGAAUUCCGCUGUAUAUCUC, the self-cleavage came to 0.3.

For UAACAGGGGGCCACAGCAGAAGCGUUCACGUCGCAGCCCCUGUCAGAUUCCGGUGAAUCAGCGAAUUCGGCUGUAUAUCUC, the self-cleavage amounted to 0.44.

As for UAACAGGGGGCCACAGCAGAAGCGUUCACGUCGCAGCCCCUGUCAGAUUCAGGUGACUCUGCGAGUUCCGCUGUAUAUCUC, the self-cleavage stood at 0.59.

As for UAACAGGGGGCCACAGCAGAAGCGUUCACGUCGCAGCCCCUGUCAGAUUCCGGUGAAUCUGCGAAUUCCGCGGUAUAUCUC, the self-cleavage was found to be 0.54.

Turning to UAACAGGGGGCCACAGCAGAAGCGUUCACGUCGCAGCCCCUGUCAGAUUCUGGAGGAUCUGCGAAUUCUGCCGUAUACCUC, the self-cleavage turned out to be 0.95.

UAACAGGGGGCCACAGCAGAAGCGUUCACGUCGCAGCCCCUGUCAGAUUCCGGUGAAUCUGCGAAGACUGCCGUAUAUCUC: the self-cleavage turned out to be 0.34.

For UAACAGGGGGCCACAGCAGAAGCGUUCACGUCGCAGCCCCUGUCAGAUUCUGUUGCAUCUGCGAGUUCUGCUGUAUAUCUC, the self-cleavage stood at 0.26.

In the case of UAACAGGGGGCCACAGCAGAAGCGUUCACGUCGCAGCCCCUGUCAGAUUCCUGUUAAUCUGCCAAUUCUGCUGUAUAUCUC, the self-cleavage is 0.32.

With UAACAGGGGGCCACAGCAGAAGCGUUCACGUCGCAGCCCCUGUCAGAUUCCGGUGAAUCUGCGAACCCUGCUGUAUACCUC, the self-cleavage worked out at 0.55.

For the variant UAACAGGGGGCCACAGCAGAAGCGUUCACGUCGCAGCCCCUGUCAGAUUCGGGUGAAUCUGCGAAUCCUGCUGGAUAUCUC, the self-cleavage is 0.39.

UAACAGGGGGCCACAGCAGAAGCGUUCACGUCGCAGCCCCUGUCAGAUUCAGGUGAAUCUGCGAAUUCUGCUGGAUAUACC: the self-cleavage is 1.3.

On to UAACAGGGGGCCACAGCAGAAGCGUUCACGUCGCAGCCCCUGUCAGAUUCGGAUGAAUCUGCGAAUUCCGCUGUGUAUCUC, for which the self-cleavage was 0.59.

Take UAACAGGGGGCCACAGCAGAAGCGUUCACGUCGCAGCCCCUGUCAGAUUCAGGUGAAUCCGCGAAUUCCGCUGUAUAUCUC: the self-cleavage came out at 0.34.

As to UAACAGGGGGCCACAGCAGAAGCGUUCACGUCGCAGCCCCUGUCAGAUUCCGGUGAGUCUGCGAAUUCUGCUGUAUAUCUA, the self-cleavage stood at 1.19.

Consider UAACAGGGGGCCACAGCAGAAGCGUUCACGUCGCAGCCCCUGUCAGAUUCUGAUGAAUCUGCGAGUUCUGCUGUAUAACUC, for which the self-cleavage came to 0.74.

In the case of UAACAGGGGGCCACAGCAGAAGCGUUCACGUCGCAGCCCCUGUCAGAUUCCGGUGAAUCUGCGGAUUCUGCUGUAUAACUC, the self-cleavage was determined as 0.86.

For the variant UAACAGGGGGCCACAGCAGAAGCGUUCACGUCGCAGCCCCUGUCAGAUUCUUGUCACUCUGCGAAUUCUGCUGUAUAUCUC, the self-cleavage came to 0.64.

On to UAACAGGGGGCCACAGCAGAAGCGUUCACGUCGCAGCCCCUGUCAGAUUCUGGAGAAUCUGCGUAUUCUGCUGUAUGUCUC, for which the self-cleavage was determined as 0.3.

For UAACAGGGGGCCACAGCAGAAGCGUUCACGUCGCAGCCCCUGUCAGAUUCAGGUGAAUCCGCGAAUUCUGCUGUAUAUCAC, the self-cleavage came out at 0.79.

On to UAACAGGGGGCCACAGCAGAAGCGUUCACGUCGCAGCCCCUGUCAGAUUCAGGUGAAUCUAUGAAUUCUGCUGUAUAUCUC, for which the self-cleavage was determined as 0.36.

Take UAACAGGGGGCCACAGCAGAAGCGUUCACGUCGCAGCCCCUGUCAGAUUCUGGCGUGUCUGCGGAUUCUGCUGUAUAUCUC: the self-cleavage was found to be 0.23.

As to UAACAGGGGGCCACAGCAGAAGCGUUCACGUCGCAGCCCCUGUCAGAUUCUGUUGAAUCUGCGGAUUCUGCUGUAAAUCUC, the self-cleavage was 1.15.

For UAACAGGGGGCCACAGCAGAAGCGUUCACGUCGCAGCCCCUGUCAGAUUCAGGUGAACCUGCGCAUUCUGCUGUAUAUCUC, the self-cleavage amounted to 0.19.

Take UAACAGGGGGCCACAGCAGAAGCGUUCACGUCGCAGCCCCUGUCAGAUUCCGGUGAAUCUGCUUAUUCUGCAGUAUUUCUC: the self-cleavage was 0.65.

UAACAGGGGGCCACAGCAGAAGCGUUCACGUCGCAGCCCCUGUCAGAUUCUGUUGAACGUGCGAAUUCCGCUGUAUAUCUC: the self-cleavage is 0.16.

As for UAACAGGGGGCCACAGCAGAAGCGUUCACGUCGCAGCCCCUGUCAGAUUCCGGCGAAUCUGCGGAUUCUGCUGUACACCUC, the self-cleavage came out at 0.75.

As for UAACAGGGGGCCACAGCAGAAGCGUUCACGUCGCAGCCCCUGUCAGAUUCAGGUGAAUCAGCGAAUUUUGCUGUAUAUCUC, the self-cleavage was 0.29.

With UAACAGGGGGCCACAGCAGAAGCGUUCACGUCGCAGCCCCUGUCAGAUUCUGGAGAAUCUGCGGAUUCUGCUGUAUACCUC, the self-cleavage is 0.78.

On to UAACAGGGGGCCACAGCAGAAGCGUUCACGUCGCAGCCCCUGUCAGAUUCAGGUGAAUCCGCGAACUCUGCUGUAUAUCUC, for which the self-cleavage turned out to be 0.39.

With UAACAGGGGGCCACAGCAGAAGCGUUCACGUCGCAGCCCCUGUCAGAUUCUUGUGAAUCUGCGAACCCUGCUGUAUAUCUC, the self-cleavage turned out to be 0.18.

With UAACAGGGGGCCACAGCAGAAGCGUUCACGUCGCAGCCCCUGUCAGAUUCUCGUGAAUCUGCGAAUUCUACUGUAUGUCUC, the self-cleavage amounted to 0.43.

Take UAACAGGGGGCCACAGCAGAAGCGUUCACGUCGCAGCCCCUGUCAGAUUCUUGUGAAUCUGCGAAUUCCACUGUAUAUCUC: the self-cleavage stood at 0.26.

For UAACAGGGGGCCACAGCAGAAGCGUUCACGUCGCAGCCCCUGUCAGAUUCUGGAGAACCUGCGUAUACUGCUGUAUAUCUC, the self-cleavage was 0.37.

Consider UAACAGGGGGCCACAGCAGAAGCGUUCACGUCGCAGCCCCUGUCAGAUUCCGGUGAAUCUGCGUAUUCCGCUGUAUAUCUC, for which the self-cleavage came out at 0.47.

In the case of UAACAGGGGGCCACAGCAGAAGCGUUCACGUCGCAGCCCCUGUCAGAUUCUGAUGAAUCUGCGGGUUCUGCAGUAUAUCUC, the self-cleavage was 0.21.

Regarding UAACAGGGGGCCACAGCAGAAGCGUUCACGUCGCAGCCCCUGUCAGAUUCUGGCGGAUCUGCGGAUUCUGCUGUAUAUCUC, the self-cleavage worked out at 0.49.

In the case of UAACAGGGGGCCACAGCAGAAGCGUUCACGUCGCAGCCCCUGUCAGAUUCCGGCGAAUCUGCGAAUUCUGCUGCAUAUCUC, the self-cleavage came to 1.24.

Turning to UAACAGGGGGCCACAGCAGAAGCGUUCACGUCGCAGCCCCUGUCAGAUUCUCGAGAAUCUGCGUAUUCCGCUGUAUAUCUC, the self-cleavage turned out to be 0.43.

Consider UAACAGGGGGCCACAGCAGAAGCGUUCACGUCGCAGCCCCUGUCAGAUUCAGGUGAAUCUGCGGAUCCUGCUGUAUACCUC, for which the self-cleavage is 0.44.

Take UAACAGGGGGCCACAGCAGAAGCGUUCACGUCGCAGCCCCUGUCAGAUUCUGGAGAAUCUGCGAAUUCUGCUGUUUACCUC: the self-cleavage came to 1.14.

Regarding UAACAGGGGGCCACAGCAGAAGCGUUCACGUCGCAGCCCCUGUCAGAUUCUGGCGUAUCUGCGGAUUCUGCUGUAUAUCUC, the self-cleavage was 0.32.

Take UAACAGGGGGCCACAGCAGAAGCGUUCACGUCGCAGCCCCUGUCAGAUUCUAGUGAAUCUGCGAAUUCAGCUGUAUAUCAC: the self-cleavage is 0.98.

As to UAACAGGGGGCCACAGCAGAAGCGUUCACGUCGCAGCCCCUGUCAGAUUCCGGUGGAUCUGCGAAUUCUGCUGUAUGUCUC, the self-cleavage was 0.88.

For UAACAGGGGGCCACAGCAGAAGCGUUCACGUCGCAGCCCCUGUCAGAUUCCGGUGAAUCUGCGAAUUCCGCUGUAUAUCCC, the self-cleavage stood at 0.65.

On to UAACAGGGGGCCACAGCAGAAGCGUUCACGUCGCAGCCCCUGUCAGAUUCUGGCGGAUCCGCGAAUUCUGCUGUAUAUCUC, for which the self-cleavage was determined as 0.39.

Regarding UAACAGGGGGCCACAGCAGAAGCGUUCACGUCGCAGCCCCUGUCAGAUUCUGGAGAACCUGCGAAUUCUGCUGUUUAUCUC, the self-cleavage was determined as 0.98.

For UAACAGGGGGCCACAGCAGAAGCGUUCACGUCGCAGCCCCUGUCAGAUUCUGAUGAAUCUGCGAAUUCUGCCGUAUACCUC, the self-cleavage was 1.24.

Take UAACAGGGGGCCACAGCAGAAGCGUUCACGUCGCAGCCCCUGUCAGAUUCCGGUGAGUCUGCGAAUUCUGCAGUAUAUCUC: the self-cleavage is 0.28.

For UAACAGGGGGCCACAGCAGAAGCGUUCACGUCGCAGCCCCUGUCAGAUUCAGGUGAGUCCGCGAAUUCUGCCGUAUAUCUC, the self-cleavage is 0.43.

Consider UAACAGGGGGCCACAGCAGAAGCGUUCACGUCGCAGCCCCUGUCAGAUUCCGGUGAAUCUGCGAGUUCUGUUGUAUACCUC, for which the self-cleavage is 0.32.

Regarding UAACAGGGGGCCACAGCAGAAGCGUUCACGUCGCAGCCCCUGUCAGAUUCUGGAGAAUCUGCGUAUUCUGCAGUUUAUCUC, the self-cleavage worked out at 0.57.

Take UAACAGGGGGCCACAGCAGAAGCGUUCACGUCGCAGCCCCUGUCAGAUUCUAGUGAAUCUCCAAAUUCUGCUGUAUAUCUC: the self-cleavage amounted to 0.46.

Take UAACAGGGGGCCACAGCAGAAGCGUUCACGUCGCAGCCCCUGUCAGAUUCUGUUGAAUCUGCGGAUACUGCUGUAUAUCUC: the self-cleavage worked out at 0.33.

Turning to UAACAGGGGGCCACAGCAGAAGCGUUCACGUCGCAGCCCCUGUCAGAUUCUGAUGAAUCUGCGGAUCCUGCUGUAUAUCUC, the self-cleavage turned out to be 0.21.

UAACAGGGGGCCACAGCAGAAGCGUUCACGUCGCAGCCCCUGUCAGAUUCCUGAGAAUCUGCGAAUUCUGCUGUAUAUCUC: the self-cleavage is 1.03.
